Among the data in article PMC12820563, “FoxP3 forms a head-to-head dimer in vivo and stabilizes its multimerization on adjacent microsatellites” are binding signal values, retold here.

The other results are listed elsewhere or left out.

For the assay, the target named is T1, MBP-FoxP1dN (Mus musculus, UniProt P58462 326-579).
T1 sequence: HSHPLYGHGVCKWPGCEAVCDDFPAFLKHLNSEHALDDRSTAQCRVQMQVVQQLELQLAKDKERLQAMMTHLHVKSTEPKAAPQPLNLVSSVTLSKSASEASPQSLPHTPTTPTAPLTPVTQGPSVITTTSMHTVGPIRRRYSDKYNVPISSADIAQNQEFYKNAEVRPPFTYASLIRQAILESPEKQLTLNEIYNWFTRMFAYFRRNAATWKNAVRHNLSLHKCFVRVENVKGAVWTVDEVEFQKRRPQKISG
Put plainly: PD-seq (MBP pull-down with sequencing); 20 mM Tris-HCl pH 7.5, 100 mM NaCl, 1.5 mM MgCl2, 0.4 uM protein, 0.1 uM dsDNA library, 30 min, room temperature, amylose pull-down; high values mean tight binding. The note with it: protein: recombinant; tags: His6-MBP; chain copies: 2; dsDNA, one strand shown. In short, it runs like this: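 Binding is given as reads-per-million enrichment, pull-down over input, with replicates pooled. The bait was an N-terminus-lacking mouse FoxP3 or FoxP1 fragment with a His6-MBP tag, expressed in E. coli and used at 0.4 µM with 0.1 µM Klenow-filled degenerate double-stranded DNA library for 30 min at room temperature in Tris pH 7.5 buffer with NaCl and MgCl2. Amylose resin pull-down with three washes was followed by proteinase K release, PCR barcoding and Illumina sequencing.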
On to “GATGATTGTTCTCCCAGCTGATGAATTAGTGGTTTCGAGTAAACAAATTTTCCTAATCTTTCTGTTCAAGCGCCATCTAC”, for which the binding signal was 0.926 RPM ratio (pull-down/input). Regarding “GATGATTGTTCTCCCAGCTGATGAATTTAAATCGTCGAGTAAACAAATTTTCCTAATCTTTCTGTTCAAGCGCCATCTAC”, the binding signal was 0.931 RPM ratio (pull-down/input). The result for “GATGATTGTTCTCCCAGCTGATGAATTACTGCCATCGAGTAAACAAATTTTCCTAATCTTTCTGTTCAAGCGCCATCTAC” reads 1.04 RPM ratio (pull-down/input); that for “GATGATTGTTCTCCCAGCTGATGAATTTCTCTTCTCGAGTAAACAAATTTTCCTAATCTTTCTGTTCAAGCGCCATCTAC”, 0.81 RPM ratio (pull-down/input). The result for “GATGATTGTTCTCCCAGCTGATGAATTACAGATGTCGAGTAAACAAATTTTCCTAATCTTTCTGTTCAAGCGCCATCTAC” reads 1.19 RPM ratio (pull-down/input); that for “GATGATTGTTCTCCCAGCTGATGAATTGGGAGTATCGAGTAAACAAATTTTCCTAATCTTTCTGTTCAAGCGCCATCTAC”, 0.972 RPM ratio (pull-down/input); that for “GATGATTGTTCTCCCAGCTGATGAATTTATTCGATCGAGTAAACAAATTTTCCTAATCTTTCTGTTCAAGCGCCATCTAC”, 1.14 RPM ratio (pull-down/input). As for “GATGATTGTTCTCCCAGCTGATGAATTCGGATACTCGAGTAAACAAATTTTCCTAATCTTTCTGTTCAAGCGCCATCTAC”, the figure is 0.852 RPM ratio (pull-down/input); as for “GATGATTGTTCTCCCAGCTGATGAATTGCGCTGTTCGAGTAAACAAATTTTCCTAATCTTTCTGTTCAAGCGCCATCTAC”, 1.07 RPM ratio (pull-down/input). Turning to “GATGATTGTTCTCCCAGCTGATGAATTATTTGTGTCGAGTAAACAAATTTTCCTAATCTTTCTGTTCAAGCGCCATCTAC”, the binding signal was 2.12 RPM ratio (pull-down/input). As for “GATGATTGTTCTCCCAGCTGATGAATTAAGTTCATCGAGTAAACAAATTTTCCTAATCTTTCTGTTCAAGCGCCATCTAC”, the figure is 0.931 RPM ratio (pull-down/input); as for “GATGATTGTTCTCCCAGCTGATGAATTTGGCATGTCGAGTAAACAAATTTTCCTAATCTTTCTGTTCAAGCGCCATCTAC”, 0.89 RPM ratio (pull-down/input). The result for “GATGATTGTTCTCCCAGCTGATGAATTAGCCCTATCGAGTAAACAAATTTTCCTAATCTTTCTGTTCAAGCGCCATCTAC” reads 0.874 RPM ratio (pull-down/input). The result for “GATGATTGTTCTCCCAGCTGATGAATTAACTTCATCGAGTAAACAAATTTTCCTAATCTTTCTGTTCAAGCGCCATCTAC” reads 0.889 RPM ratio (pull-down/input). In the case of “GATGATTGTTCTCCCAGCTGATGAATTCTAGAGGTCGAGTAAACAAATTTTCCTAATCTTTCTGTTCAAGCGCCATCTAC”, the binding signal was 0.79 RPM ratio (pull-down/input).

Turning to “GATGATTGTTCTCCCAGCTGATGAATTTTGGATATCGAGTAAACAAATTTTCCTAATCTTTCTGTTCAAGCGCCATCTAC”, the binding signal was 1.05 RPM ratio (pull-down/input). On to “GATGATTGTTCTCCCAGCTGATGAATTCTTCTACTCGAGTAAACAAATTTTCCTAATCTTTCTGTTCAAGCGCCATCTAC”, for which the binding signal was 0.88 RPM ratio (pull-down/input). As for “GATGATTGTTCTCCCAGCTGATGAATTTTCTGACTCGAGTAAACAAATTTTCCTAATCTTTCTGTTCAAGCGCCATCTAC”, the figure is 0.853 RPM ratio (pull-down/input).
